# Results from PubChem BioAssay AID488969 (Vanderbilt High Throughput Screening Facility, 2010).
# In all, about 110,000 compounds were measured (“z-score”: median about -0.1, highest 2% from about 2 on). The list shows a part of the results. The source made the active and inactive calls.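 The calls were made as follows: active = z-score in the third read window above 3 or below -3; inactive = the rest.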
# Molecular target: Metabotropic glutamate receptor 8 (Rattus norvegicus) (UniProt P70579)
# Assay: mGluR8 Gi/Go-coupled signaling modulation – cell-based, rat, thallium flux, HTS, primary screen (AID 488969)
# Conditions: HEK293 rat mGluR8, GIRK (G protein-gated inwardly rectifying potassium channel) thallium flux, FluoZin2; at 10 µM; stronger effect = higher value; submaximal glutamate (EC20) added with thallium
# Chain of UniProt P70579 (P70579 whole entry, looked up): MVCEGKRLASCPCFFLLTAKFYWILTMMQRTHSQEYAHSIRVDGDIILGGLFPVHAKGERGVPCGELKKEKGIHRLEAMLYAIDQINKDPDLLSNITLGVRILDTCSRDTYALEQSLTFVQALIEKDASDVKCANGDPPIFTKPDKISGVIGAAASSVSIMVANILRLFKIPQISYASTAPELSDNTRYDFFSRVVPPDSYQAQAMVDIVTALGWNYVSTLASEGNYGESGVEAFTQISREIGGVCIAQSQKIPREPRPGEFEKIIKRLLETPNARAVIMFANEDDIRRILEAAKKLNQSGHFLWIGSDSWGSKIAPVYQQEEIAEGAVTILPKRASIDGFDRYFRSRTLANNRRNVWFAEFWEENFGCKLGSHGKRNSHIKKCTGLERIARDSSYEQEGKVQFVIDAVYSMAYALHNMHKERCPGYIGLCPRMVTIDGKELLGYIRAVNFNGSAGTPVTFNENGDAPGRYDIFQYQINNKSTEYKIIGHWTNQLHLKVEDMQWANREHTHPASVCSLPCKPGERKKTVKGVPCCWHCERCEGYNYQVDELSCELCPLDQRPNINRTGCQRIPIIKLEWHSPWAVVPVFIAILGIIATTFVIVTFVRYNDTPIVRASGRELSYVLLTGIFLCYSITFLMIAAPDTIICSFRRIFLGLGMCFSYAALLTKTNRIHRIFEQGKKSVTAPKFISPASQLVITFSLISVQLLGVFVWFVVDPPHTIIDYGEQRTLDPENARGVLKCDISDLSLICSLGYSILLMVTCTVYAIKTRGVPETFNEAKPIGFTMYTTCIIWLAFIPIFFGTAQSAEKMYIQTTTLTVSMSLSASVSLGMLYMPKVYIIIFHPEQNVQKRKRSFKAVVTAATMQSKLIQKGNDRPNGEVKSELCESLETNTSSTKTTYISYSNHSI
row,SMILES,z-score
1,CC(NS(=O)(=O)c1ccc2c(c1)OCCCO2)C(=O)O (centres undefined),0.595
2,O=c1cc(CN2CCN(S(=O)(=O)/C=C/c3ccccc3)CC2)c2ccc(O)cc2o1,-0.179
3,N#CCC(=O)Nc1sc2c(c1C(N)=O)CCCC2,-0.0548
4,Cc1nn(CC(=O)NCCN2CCOCC2)c(C)c1[N+](=O)[O-],-0.415
5,CCOc1ccc(-c2nn(-c3ccccc3)cc2/C=C2\SC(N)=NC2=O)cc1C,-0.255
6,Cn1c(SCC(=O)N2CCN(S(=O)(=O)c3ccc(Cl)cc3)CC2)nc2ccccc21,-0.0808
7,Cc1cc(C)n(-c2nc(NC(C)(C)C)nc(NC(C)(C)C)n2)n1,0.00607
8,CCNC(=S)NNC(=O)c1cc(-c2cc(C)ccc2C)nc2ccccc12,-0.78
9,Cc1ccc(NC(=S)N2CCn3cccc3C2c2cccnc2)cc1 (centres undefined),-0.119
10,C=CCN1C(=O)N/C(=C/c2ccc(C)o2)C1=O,-0.164
11,COc1cccc(C2C3CN(C)CC=C3C(C#N)=C(N)C2(C#N)C#N)c1OC (centres undefined),-0.444
12,O=C(OCc1c(Cl)nc2sccn12)c1cc2c(s1)CCCC2,0.322
13,COc1ccccc1NCCC#N,0.226
14,O=C(COC(=O)c1cccnc1Nc1ccccc1F)NCc1ccc2c(c1)OCO2,-0.0875
15,COc1ccc(N2CCN(CCCNC(=O)Nc3ccccc3)CC2)cc1,0.121
16,O=C(Nc1ccc2c(c1)OCO2)OCc1ccccc1,0.897
17,CCOC(=O)C1=C(C)Nc2nnnn2C1c1cccnc1 (centres undefined),0.349
18,O=C(CN1CCOCC1)Nc1c2c(nc3c1CCC3)CCC2,0.117
19,Clc1ccc(CNCCC2=CCCCC2)cc1,2.27
20,Cc1cc(C)c2nc(N3CCCN(C(=O)c4cnccn4)CC3)c(C#N)cc2c1,-0.232
21,CC(=O)c1ccc(NC(=O)Nc2cccc(Cl)c2)cc1,1.07
22,N#Cc1cn(CC(=O)N2CCc3ccccc3C2)c2ccccc12,-0.372
23,Cn1c(CN2CCN(c3ccc(Cl)cc3)CC2)nc2ccccc21,-0.229

row,SMILES,z-score
1,Cn1c(=O)c2[nH]c(N3CCOCC3)nc2n(-c2ccccc2)c1=O,-0.487
2,COc1ccccc1NS(=O)(=O)c1ccc(N/N=C/c2c(C)nn(-c3ccccc3)c2N2CCCC2)c([N+](=O)[O-])c1,-0.652
3,COCCOc1ccc(C(F)(F)F)cc1NC(=O)c1ccccc1F,0.379
4,COC(=O)[C@@H](NC(=O)Nc1cccc(Br)c1)C(C)C,-0.134
5,O=C(N/N=C/C1CCCCC1)c1cc(Cl)ccc1O,0.618
6,Cc1ccccc1OCCCN1C(=O)C(=O)c2cccc(C)c21,0.12
7,CCOC(=O)NC(=O)/C(C#N)=N/Nc1c(F)cccc1F,-0.809
8,CCc1ccc(S(=O)(=O)Nc2ccc(-c3nc4cccnc4s3)cc2)s1,0.709
9,O=C(NCc1ccc(F)cc1)c1noc2c1CCCC2,-1.4
10,Cc1cccc(C)c1NC(=O)CN(C)c1ccc(C(F)(F)F)cn1,-0.19
11,COc1ccc(-n2c(O)cnc2Nc2nc(C)cc(C)n2)cc1OC,0.0663
12,Cc1sc(NC(=O)/C=C/c2ccco2)c(C(=O)OC(C)C)c1C,-0.532
13,COc1cccc2c1C(=O)C=C(C)C2=O,-0.1
14,O=C(O)CCN1C(=O)c2ccc(NC(=O)c3cccs3)cc2C1=O,-0.0966
15,Cc1nc2nc3c(c(=O)n2[nH]1)CCCC3,-0.181
16,Cc1ccc(CN(C(=O)Cn2nnc3ccccc32)C(C(=O)NCc2ccco2)c2ccc(C)o2)cc1 (centres undefined),0.0419
17,Cc1cc2n(n1)C(c1cccs1)Nc1ccccc1-2 (centres undefined),-0.0377
18,O=C(c1ccc(COc2ccccc2[N+](=O)[O-])o1)N1CCCCCC1,-0.317
19,CN(CC(=O)NCCC1=CCCCC1)S(=O)(=O)c1ccc2c(c1)CCC(=O)N2,-0.698
20,O=C(Nc1ccc(O)cc1)c1ccc2c(c1)C(=O)N(Cc1ccco1)C2=O,-0.323
21,CC(=O)N/C(=C/c1ccccc1)C(=O)NCCO,-0.232
22,Cc1csc(NC(=O)c2sc3nc(-c4cccs4)ccc3c2N)n1,0.0434
23,Cc1ccc(S(=O)(=O)N2C(=O)CCC2C(=O)NCc2ccco2)cc1 (centres undefined),0.396

row,SMILES,z-score
1,O=C(Nc1ccccc1)C(Cc1cccs1)c1nn[nH]n1 (centres undefined),0.0119
2,CCn1cc(Br)c(C(=O)Nc2cccc(Cl)c2)n1,-0.412
3,CCSc1nnc(C)c2ccccc12,-0.296
4,CCC(=O)Nc1cc(C(C)C)c(O)cc1C,-0.0995
5,CCOC(=O)N1CCN(C(=O)Nc2ccccc2Cl)CC1,0.551
6,NS(=O)(=O)c1ccc(CCNC(=O)CCC2COc3ccccc3O2)cc1 (centres undefined),0.237
7,CC(C)Cc1csc(NC(=O)c2ccc(Cl)cc2)c1C(=O)O,0.364
8,CCN(CC)CCNC(=O)CCCCCn1c(=O)[nH]c2cc(C(=O)OC)ccc2c1=O,0.0626
9,Nn1c(N2CCCCC2)nc2ccccc21,-0.0787
10,C=CCNC(=O)c1cc(-c2ccc(Br)cc2)on1,1.05
11,O=C(CCSc1nc2ccccc2o1)N1CCOCC1,-0.0875
12,CCC(C)[C@H](NC(=O)OC(C)(C)C)C(=O)N/N=C/C1=Cc2ccccc2OC1 (some centres undefined),-0.478
13,O=C(CCc1nc(-c2ccc(Cl)cc2)no1)OCc1ccc(Br)cc1,-0.0119
14,CN1CCN(NC(=O)c2ccc(Cl)c([N+](=O)[O-])c2)CC1,0.18
15,Cc1csc(CCc2nc(C)cs2)n1,-0.221
16,O=C(CCCn1c(SCC(=O)c2ccc(F)cc2)nc2ccccc2c1=O)NCc1ccccc1,-0.422
17,O=C(N/N=C/C=C/c1ccccc1[N+](=O)[O-])c1cccs1,-0.256
18,C=CCNC(=S)Nc1sc2c(c1C(=O)OCC)CC(C(C)C)OC2 (centres undefined),active: 8.63
19,CC(=O)NS(=O)(=O)c1ccc(NC(=O)c2ccccc2F)cc1,-0.204
20,CCCCOc1ccc(CSCCNC(=S)Nc2ccccc2)cc1,-0.195
21,Cc1nn(-c2ccccc2)c(N2CCCC2)c1/C=N/O,-0.102
22,O=C(Nc1ccc(Br)cc1F)c1ccc2c(c1)N(Cc1ccccc1)C(=O)CS2=O (centres undefined),1.3
23,O=C(Nc1ccc2c(c1)OCCO2)c1ccc2nccnc2c1,0.215

row,SMILES,z-score
1,O=c1cc(N2CCN(Cc3ccccc3)CC2)[nH]c(=O)n1Cc1ccc(F)cc1,-0.132
2,CSc1nc2ccccc2cc1/C=C(\C#N)c1ccc(Cl)c(Cl)c1,-0.229
3,CC(C)(C)c1nc2ccccc2c2nnc(SCC(=O)Nc3nc4ccccc4s3)n12,-0.287
4,N/C(=N\OC(=O)N1c2ccccc2Sc2ccccc21)c1ccccc1,-0.247
5,Cc1c(NC(=O)c2ccc(=O)oc2)c(=O)n(-c2ccccc2)n1C,-0.416
6,CCc1ccc2nc(N3CCN(C)CC3)c(C#N)cc2c1,-0.507
7,CC(C)CC(=O)NC(NCC1CCCO1)C(Cl)(Cl)Cl (centres undefined),0.0987
8,NS(=O)(=O)c1ccc(NC(=O)COC(=O)C23CC4CC(CC(C4)C2)C3)cc1,0.81
9,CCN(CC)CC#CCC(O)(c1ccccc1)C1CCCC1 (centres undefined),0.508
10,CCN(CC)S(=O)(=O)c1cccc(C(=O)N/N=C/c2cccc(O)c2O)c1,0.294
11,Cc1cnc(NC(=O)c2cc3c(C)nn(Cc4ccccc4Cl)c3s2)s1,-0.311
12,CCOC(=O)C1CCN(C(=O)Cc2ccc(C)cc2)CC1,-0.832
13,CC(C)=CC(=O)N1CCCc2ccccc21,0.23
14,O=C(CCN1C(=O)/C(=C\c2cccs2)SC1=S)Nc1nccs1,-0.437
15,CC1CN(C(=O)c2ccccc2)C(=Nc2cccc(S(=O)(=O)N(C)C)c2)S1 (centres undefined),0.0788
16,CCn1cc(C2=NCCO2)c2ccccc21,2.2
17,Brc1ccccc1-c1nc(-c2ccccc2)no1,0.0313
18,Cc1cccc(C)c1NCc1nnc(SCC(=O)Nc2nc(-c3ccccc3)cs2)n1-c1ccccc1,-0.26
19,O=[N+]([O-])c1cc(Cc2ccccc2)cc(C=Nc2ccc(N3CCOCC3)cc2)c1O,-1.16
20,Cc1noc(C)c1C(=O)Nc1ccc(Cl)cc1C(F)(F)F,-1.87
21,O=C(NCCNC(=O)c1cc(OCC(F)(F)F)ccc1OCC(F)(F)F)Nc1ccccc1,-0.426
22,O=C(CNC(=O)c1ccc(Br)o1)NCc1ccc2c(c1)OCO2,0.352
23,Cn1cccc1CC(=O)N/N=C\c1cccs1,-0.133

row,SMILES,z-score
1,CCOC(=O)Cc1c(C)nc2cc(C)nn2c1C,0.652
2,OCC1N=C(c2ccccn2)OC1c1ccccc1 (centres undefined),0.226
3,Cc1ccc(C)c(Oc2ncnc(N)c2[N+](=O)[O-])c1,0.623
4,COc1ccc(N(CC(=O)Nc2cc(C)on2)S(=O)(=O)c2ccc(Cl)cc2)cc1,0.0257
5,CN1C(=O)/C(=C2\SC(N3CCCCCC3)=NC2=O)c2ccccc21,-0.473
6,CCc1cccc(CC)c1NC(=O)CSc1nnc(C(C)C)n1CC,0.342
7,CCCN1CNC(=S)N(c2ccccc2OC)C1,0.365
8,Cc1nc(NC(C)C)c2cnn(CCc3ccccc3)c2n1,0.135
9,C/C(=C\c1ccco1)C1C(C#N)=C(N)Oc2n[nH]c(-c3ccc(C)cc3)c21 (centres undefined),0.0675
10,COc1ccc(C(=O)Nc2cc(Cl)ccc2OC(=O)c2ccc(OC)cc2)cc1,-0.218
11,O=C(CSc1nc2ccccc2[nH]1)Nc1cc(C(F)(F)F)ccc1N1CCOCC1,-0.658
12,CC12CCCCC1N(O)C(=O)C(=O)N2O (centres undefined),-0.218
13,COc1ccc(N2CCN(C(=O)CSc3nnc(COc4cccc5cccnc45)o3)CC2)cc1,-0.0235
14,CC(=O)Nc1ccc(-c2nnc(SCC(=O)Nc3ccc4c(c3)oc3ccccc34)n2C)cc1,-0.05
15,O=C(NCCN1C(=O)C2C3C=CC(C3)C2C1=O)Nc1ccccc1O (centres undefined),0.461
16,O=C(CN(c1ccc(F)cc1)S(=O)(=O)c1ccccc1)NCCSC1CCCCC1,0.231
17,Cc1nn(C)c(C(=O)Nc2ccn(Cc3ccccc3F)n2)c1[N+](=O)[O-],-0.18
18,Cc1cc2cc(C)c3nnc(SCC(=O)N4CCN(C(=O)c5ccco5)CC4)n3c2cc1C,-0.423
19,Cc1[nH]c2ccccc2c1SCC(=O)O,-0.21
20,COc1ccc(/C=C/C(=O)Nc2cccc(C(C)=O)c2)cc1,-0.7
21,CC(=O)/C(=N\Nc1ccc(Cl)cc1)Sc1nnc(-c2ccccc2)n1-c1ccccc1,0.0778
22,Cc1c(NC(=O)OCCNC(=O)COc2ccc(Cl)cc2Cl)sc(=S)n1C,-0.19
